This test deals with Trichoderma virens ATCC 9645. As to the kind of experiment: growth yield (OD600) with compound + IPBC relative to untreated control; higher = less growth inhibition. Conditions: compound concentration: 100 uM, IPBC concentration: 200 ng/ml. The method in brief:
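Trichoderma virens ATCC 9645 spores from 7-day potato dextrose agar plates were suspended in potato dextrose broth at 15,000 spores ml^−1. Aliquots of 100 μl with library compounds at 100 μM final, with or without a co-applied biocide at 200 ng ml^−1, were grown in 96-well plates at 30 °C. OD600 was read at 40 h and 72 h on a BioTek EL800. Growth is expressed relative to the control without either agent, as means of duplicate screens.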

Structures can show the parent of a compound that is named as a salt. ± gives the standard error. Hit rate of the full screen: of about 1,300 compounds, about 130 (10%) showed an effect of 50% or more. Only a part is listed here, and it is no random draw.

Regarding `COc1ccccc1OCC(O)CO` (configuration not stated) [Guaifenesin] + CCCCNC(=O)OCC#CI [3-iodo-2-propynyl butylcarbamate (IPBC)], the growth yield runs as follows: (40 h) 98.6 ± 11%; (72 h) 96 ± 6.2%.

As to `CC(=O)[C@H]1CC[C@H]2[C@@H]3C=CC4=CC(=O)CC[C@@]4(C)[C@@H]3CC[C@]12C` [Dydrogesterone] + CCCCNC(=O)OCC#CI [3-iodo-2-propynyl butylcarbamate (IPBC)], the growth yield (40 h) was found to be 67.8 ± 2.7% and the growth yield (72 h) was 82.3 ± 2.2%. For the compound `C[C@H]1O[C@@H](O[C@H]2[C@@H](O)C[C@H](O[C@H]3[C@@H](O)C[C@H](O[C@H]4CC[C@@]5(C)[C@H](CC[C@@H]6[C@@H]5C[C@@H](O)[C@]5(C)[C@@H](C7=CC(=O)OC7)CC[C@]65O)C4)O[C@@H]3C)O[C@@H]2C)C[C@H](O)[C@@H]1O` [Digoxin] + CCCCNC(=O)OCC#CI [3-iodo-2-propynyl butylcarbamate (IPBC)], the growth yield by setting is: (40 h) 81.3 ± 1.6%; (72 h) 89.6 ± 4.2%. The matching figures for `COc1cc([S+](C)[O-])ccc1-c1nc2cccnc2[nH]1` (configuration not stated) [Sulmazole] + CCCCNC(=O)OCC#CI [3-iodo-2-propynyl butylcarbamate (IPBC)]: 110 ± 9.8% and 107 ± 4.2%. The matching figures for `CC[C@H](C)[C@H]1O[C@]2(C=C[C@@H]1C)C[C@@H]1C[C@@H](C/C=C(\C)[C@@H](O[C@H]3C[C@H](OC)[C@@H](O[C@H]4C[C@H](OC)[C@@H](O)[C@H](C)O4)[C@H](C)O3)[C@@H](C)/C=C/C=C3\CO[C@@H]4[C@H](O)C(C)=C[C@@H](C(=O)O1)[C@]34O)O2.CO[C@H]1C[C@H](O[C@H]2[C@H](C)O[C@@H](O[C@@H]3/C(C)=C/C[C@@H]4C[C@@H](C[C@]5(C=C[C@H](C)[C@@H](C(C)C)O5)O4)OC(=O)[C@@H]4C=C(C)[C@@H](O)[C@H]5OC/C(=C\C=C\[C@@H]3C)[C@]54O)C[C@@H]2OC)O[C@@H](C)[C@@H]1O` [Avermectin B1] + CCCCNC(=O)OCC#CI [3-iodo-2-propynyl butylcarbamate (IPBC)]: 115.5 ± 0.79% and 110 ± 2%.

On to `O=C(OCC(O)CO)c1ccccc1Nc1ccnc2cc(Cl)ccc12` (configuration not stated) [Glafenine hydrochloride] + CCCCNC(=O)OCC#CI [3-iodo-2-propynyl butylcarbamate (IPBC)], for which the growth yield runs as follows: (40 h) 84.3 ± 2.4%; (72 h) 97.3 ± 1.3%. Regarding `CC(C(=O)O)c1ccc(-c2ccccc2)c(F)c1` (configuration not stated) [Flurbiprofen] + CCCCNC(=O)OCC#CI [3-iodo-2-propynyl butylcarbamate (IPBC)], the growth yield (40 h) was 43.4 ± 3.3% and the growth yield (72 h) turned out to be 76.9 ± 2%. The matching figures for `C[C@]12CCC(=O)C=C1CC[C@@H]1[C@@H]2C(=O)C[C@]2(C)C(=O)CC[C@@H]12` [Adrenosterone] + CCCCNC(=O)OCC#CI [3-iodo-2-propynyl butylcarbamate (IPBC)]: 83.7 ± 1.4% and 90 ± 1.5%.

Take `CN(C)C(=O)C(CCN1CCC(O)(c2ccc(Cl)cc2)CC1)(c1ccccc1)c1ccccc1` [Loperamide hydrochloride] + CCCCNC(=O)OCC#CI [3-iodo-2-propynyl butylcarbamate (IPBC)]: the growth yield (40 h) came out at 68.9 ± 0.95% and the growth yield (72 h) amounted to 99.3 ± 1.8%. Taken in the same sequence, the figures for `CC(C(=O)O)c1ccc2c(c1)[nH]c1ccc(Cl)cc12` (configuration not stated) [Carprofen] + CCCCNC(=O)OCC#CI [3-iodo-2-propynyl butylcarbamate (IPBC)] were 33.2 ± 0.16% and 68.3 ± 1.1%. As to `Cc1cccc(C)c1NC(=O)C(C)N` (configuration not stated) [Tocainide hydrochloride] + CCCCNC(=O)OCC#CI [3-iodo-2-propynyl butylcarbamate (IPBC)], the growth yield (40 h) amounted to 103 ± 7.6% and the growth yield (72 h) worked out at 103 ± 4.8%.

On to `CC(=O)NCCCS(=O)(=O)O` [Acamprosate calcium] + CCCCNC(=O)OCC#CI [3-iodo-2-propynyl butylcarbamate (IPBC)], for which the growth yield was determined as 102.9 ± 0.32% (40 h) and 94.3 ± 2.4% (72 h). For the compound `CCOC(=O)O[C@]1(C(=O)COC(=O)CC)CC[C@H]2[C@@H]3CCC4=CC(=O)C=C[C@]4(C)[C@H]3[C@@H](O)C[C@@]21C` [Prednicarbate] + CCCCNC(=O)OCC#CI [3-iodo-2-propynyl butylcarbamate (IPBC)], the growth yield reads like this: (40 h) 110 ± 10%; (72 h) 109 ± 4.5%. In the case of `CC(C)(C)NCC(O)COc1cccc2c1CCC(=O)N2` (configuration not stated) [Carteolol hydrochloride] + CCCCNC(=O)OCC#CI [3-iodo-2-propynyl butylcarbamate (IPBC)], the growth yield is, setting by setting: (40 h) 81.3 ± 1.6%; (72 h) 89.9 ± 1.6%.

For `C=C1c2c(Cl)ccc(O)c2C(=O)C2=C(O)[C@]3(O)C(=O)C(C(N)=O)=C(O)[C@@H](N(C)C)[C@@H]3[C@@H](O)[C@H]12.O=C(O)c1cc(S(=O)(=O)O)ccc1O` [Meclocycline sulfosalicylate] + CCCCNC(=O)OCC#CI [3-iodo-2-propynyl butylcarbamate (IPBC)], the growth yield reads like this: (40 h) 57.2 ± 7.3%; (72 h) 84.1 ± 9.4%. The matching figures for `COc1ccc2c(c1)c(CC(=O)O)c(C)n2C(=O)c1ccc(Cl)cc1` [Indomethacin] + CCCCNC(=O)OCC#CI [3-iodo-2-propynyl butylcarbamate (IPBC)]: 73.4 ± 3.8% and 94.39 ± 0.21%. Taken in the same sequence, the figures for `Nc1nc2ccc(OC(F)(F)F)cc2s1` [Riluzole hydrochloride] + CCCCNC(=O)OCC#CI [3-iodo-2-propynyl butylcarbamate (IPBC)] were 27.3 ± 2.2% and 49.3 ± 1.9%. Taken in the same sequence, the figures for `CN1CCC(=C2c3ccccc3CCc3cccnc32)CC1` [Azatadine maleate] + CCCCNC(=O)OCC#CI [3-iodo-2-propynyl butylcarbamate (IPBC)] were 99.6 ± 2.4% and 97.43 ± 0.94%. For `C(=C\c1ccccc1)/CN1CCN(C(c2ccccc2)c2ccccc2)CC1` [Cinnarizine] + CCCCNC(=O)OCC#CI [3-iodo-2-propynyl butylcarbamate (IPBC)], the growth yield (40 h) was 34.9 ± 5.1%.

With `CN(C)CCOC(C)(c1ccccc1)c1ccccn1` (configuration not stated) [Doxylamine succinate] + CCCCNC(=O)OCC#CI [3-iodo-2-propynyl butylcarbamate (IPBC)], the growth yield amounted to 86.1 ± 1.3% (40 h) and 91.1 ± 1.6% (72 h). The matching figures for `CC(=O)c1ccc2c(c1)N(CCCN(C)C)c1ccccc1S2` [Acetopromazine maleate salt] + CCCCNC(=O)OCC#CI [3-iodo-2-propynyl butylcarbamate (IPBC)]: 70.84 ± 0.32% and 91.6 ± 0.94%. `Oc1c(I)cc(Cl)c2cccnc12` [Clioquinol] + CCCCNC(=O)OCC#CI [3-iodo-2-propynyl butylcarbamate (IPBC)]: the growth yield (40 h) was determined as 11.4% and the growth yield (72 h) was determined as 5.66 ± 0.21%.

As to `CN(C(=O)C(Cl)Cl)c1ccc(OC(=O)c2ccco2)cc1` [Diloxanide furoate] + CCCCNC(=O)OCC#CI [3-iodo-2-propynyl butylcarbamate (IPBC)], the growth yield came out at 73.7 ± 0.95% (40 h) and 85.3 ± 2% (72 h).

For the compound `Nc1ccn([C@H]2CC[C@@H](CO)O2)c(=O)n1` [Zalcitabine] + CCCCNC(=O)OCC#CI [3-iodo-2-propynyl butylcarbamate (IPBC)], the growth yield runs as follows: (40 h) 101 ± 4.1%; (72 h) 98.7 ± 3%. Taken in the same sequence, the figures for `CN1CCN(CCCN2c3ccccc3Sc3ccc(C(F)(F)F)cc32)CC1` [Trifluoperazine dihydrochloride] + CCCCNC(=O)OCC#CI [3-iodo-2-propynyl butylcarbamate (IPBC)] were 4.45 ± 0.95% and 3.46 ± 0.1%. The matching figures for `CN(C)CCN1C(=O)c2ccccc2N(C)c2ccccc21` [Dibenzepine hydrochloride] + CCCCNC(=O)OCC#CI [3-iodo-2-propynyl butylcarbamate (IPBC)]: 82.1 ± 2.1% and 94.5 ± 2.8%. The matching figures for `COc1ccc(OC)c(C(O)CNC(=O)CN)c1` (configuration not stated) [Midodrine hydrochloride] + CCCCNC(=O)OCC#CI [3-iodo-2-propynyl butylcarbamate (IPBC)]: 96.1 ± 4.3% and 104 ± 2.1%.

In the case of `OC(CNCC(O)C1CCc2cc(F)ccc2O1)C1CCc2cc(F)ccc2O1` (configuration not stated) [Nebivolol hydrochloride] + CCCCNC(=O)OCC#CI [3-iodo-2-propynyl butylcarbamate (IPBC)], the growth yield (40 h) was found to be 11.3 ± 4.3%. On to `CC[C@@H](C(N)=O)N1CCCC1=O` [Levetiracetam] + CCCCNC(=O)OCC#CI [3-iodo-2-propynyl butylcarbamate (IPBC)], for which the growth yield runs as follows: (40 h) 86.6 ± 2.1%; (72 h) 91.2 ± 1.1%. With `CC[C@H](C)[C@H](N)C1=N[C@H](C(=O)N[C@@H](CC(C)C)C(=O)N[C@H](CCC(=O)O)C(=O)N[C@H](C(=O)N[C@H]2CCCCNC(=O)[C@H](CC(N)=O)NC(=O)[C@@H](CC(=O)O)NC(=O)[C@H](Cc3cnc[nH]3)NC(=O)[C@@H](Cc3ccccc3)NC(=O)[C@H]([C@@H](C)CC)NC(=O)[C@@H](CCCN)NC2=O)[C@@H](C)CC)CS1` [Bacitracin] + CCCCNC(=O)OCC#CI [3-iodo-2-propynyl butylcarbamate (IPBC)], the growth yield stood at 99.4 ± 10% (40 h) and 113 ± 2.5% (72 h). Take `Cc1oncc1C(=O)Nc1ccc(C(F)(F)F)cc1` [Leflunomide] + CCCCNC(=O)OCC#CI [3-iodo-2-propynyl butylcarbamate (IPBC)]: the growth yield (40 h) is 40.2 ± 3%. Take `CCOC(=O)[C@H](CCc1ccccc1)N[C@@H](C)C(=O)N1Cc2ccccc2C[C@H]1C(=O)O` [Quinapril hydrochloride] + CCCCNC(=O)OCC#CI [3-iodo-2-propynyl butylcarbamate (IPBC)]: the growth yield amounted to 89.9 ± 4.1% (40 h) and 93.1 ± 3.4% (72 h). The matching figures for `CN1C(C)(C)CCCC1(C)C` [Pempidine] + CCCCNC(=O)OCC#CI [3-iodo-2-propynyl butylcarbamate (IPBC)]: 92.9 ± 8.7% and 90.5 ± 7%. The matching figures for `Cc1onc(-c2c(Cl)cccc2Cl)c1C(=O)N[C@@H]1C(=O)N2[C@@H]1SC(C)(C)[C@@H]2C(=O)O` [Dicloxacillin sodium salt hydrate] + CCCCNC(=O)OCC#CI [3-iodo-2-propynyl butylcarbamate (IPBC)]: 86.9 ± 2.4% and 93.9 ± 3%. Turning to `CN(C)/N=N/c1[nH]cnc1C(N)=O` [Dacarbazine] + CCCCNC(=O)OCC#CI [3-iodo-2-propynyl butylcarbamate (IPBC)], the growth yield reads like this: (40 h) 86.25 ± 0.48%; (72 h) 93.03 ± 0.52%.

These data come from the supplement of paper PMC8007513.
